From the supplement of paper PMC12217912
Some of the results follow. Sequences were assembled here from the parent chain. Values near 0.05 are background.

B1: TEV protease; numbered along this chain (parent)
chain: MGESLFKGPRDYNPISSSICHLTNESDGHTTSLYGIGFGPFIITNKHLFRRNNGTLVVQSLHGVFKVKDTTTLQQHLVDGRDMIIIRMPKDFPPFPQKLKFREPQREERICLVTTNFQTKSMSSMVSDTSCTFPSGDGIFWKHWIQTKDGQCGSPLVSTRDGFIVGIHSASNFTNTNNYFTSVPKNFMELLTNQEAQQWVSGWRLNADSVLWGGHKVFMVKPEEPFQPVKEATQL

Variants of: B1
Experiment: raw area under fraction-flipped curve 0-4 h after induction (AUC4h, not background-subtracted), DNA-recorder readout of cleavage of the substrate (dimensionless); higher = more cleavage of the substrate by the protease variant
Conditions: temperature: 34 °C; time window: 0-4 h after rhamnose induction
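Also: Bxb1 expression induced with 0.2% (w/v) L-rhamnose at OD600 near 0.5, cultures sampled hourly, flipped fraction per protease–substrate barcode pair counted by paired-end Illumina sequencing.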

| Variant | area with substrate ENLDFQS | area with substrate ENLKFQS | area with substrate ENLPFQS | area with substrate ENLSFQS | area with substrate ENLTFQS | area with substrate ENLNFQS | area with substrate ENLRFQS | area with substrate ENLEFQS | area with substrate ENLFFQS | area with substrate ENLIFQS | area with substrate ENLLFQS | area with substrate ENLMFQS | area with substrate ENLQFQS | area with substrate ENLHFQS | area with substrate ENLWFQS | area with substrate ENLGFQS | area with substrate ENLVFQS |
| --- | --- | --- | --- | --- | --- | --- | --- | --- | --- | --- | --- | --- | --- | --- | --- | --- | --- |
| MGESLFKGPRDYNPISSSICHLTNESDGHTTSLYGIGFGPFIITNKHLFRRNNGTLVVQSLHGVFKVKDTTTLQQHLVDGRDMIIIRMPKDFPPFPQKLKFREPQREERICLVTTNFQEKSMSSMVSDTSCTFPSGDGIFWKHWIQTKDGQCGSPLVSTRDGFIVGIHSASNFTNTNNYFTSVPKNFMELLTNQEAQQWVSGWRLNADSVLWGGHKVFMVKPEEPFQPVKEATQL [T119E] | 0.0774 | 0.0876 | 0.0336 | 0.053 | 0.0553 |  |  |  |  |  |  |  |  |  |  |  |  |
| MGESLFKGPRDYNPISSSICHLTNESDGHTTSLYGIGFGPFIITNKHLFRRNNGTLVVQSLHGVFKVKDTTTLQQHLVDGRDMIIIRMPKDFPPFPQKLKFREPQREERICLVTTNFQTKSMSSMVSGTSCTFPSGDGIFWKHWIQTKDGQCGSPLVSTRDGFIVGIHSASNFTNTNNYFTSVPKNFMELLTNQEAQQWVSGWRLNADSVLWGGHKVFMVKPEEPFQPVKEATQL [D128G] | 0.139 |  |  |  |  | 0.057 | 0.132 |  |  |  |  |  |  |  |  |  |  |
| MGESLFKGPRDYNPISSSICHLTNESDGHTTSLYGIGFGPFIITNKHLFRRNNGTLVVQSLHGVFKVKDTTTLQQHLVDGRDMIIIRMPKDFPPFPQKLKFREPQREERICLVTTNFQTKSMSSMVSQTSCTFPSGDGIFWKHWIQTKDGQCGSPLVSTRDGFIVGIHSASNFTNTNNYFTSVPKNFMELLTNQEAQQWVSGWRLNADSVLWGGHKVFMVKPEEPFQPVKEATQL [D128Q] | 0.0605 | 0.0868 | 0.0695 | 0.0786 |  | 0.0646 | 0.0904 | 0.0715 | 0.0922 | 0.119 | 0.0705 | 0.0857 | 0.0703 |  |  |  |  |
| MGESLFKGPRDYNPISSSICHLTNESDGHTTSLYGIGFGPFIITNKHLFRRNNGTLVVQSLHGVFKVKDTTTLQQHLVDGRDMIIIRMPKDFPPFPQKLKFREPQREERICLVTTNFQTKSMSSMVSDTSCTFPSGPGIFWKHWIQTKDGQCGSPLVSTRDGFIVGIHSASNFTNTNNYFTSVPKNFMELLTNQEAQQWVSGWRLNADSVLWGGHKVFMVKPEEPFQPVKEATQL [D137P] | 0.0547 |  |  | 0.0474 |  |  | 0.079 | 0.0631 |  |  | 0.114 |  |  | 0.0617 |  |  |  |
| MGESLFKGPRDYNPISSSICHLTNESDGHTTSLYGIGFGPFIITNKHLFRRNNGTLVVQSLHGVFKVKDTTTLQQHLVDGRDMIIIRMPKDFPPFPQKLKFREPQREERICLVTTNFQTKSMSSMVSDTSCTFTSGDGIFWKHWIQTKDGQCGSPLVSTRDGFIVGIHSASNFTNTNNYFTSVPKNFMELLTNQEAQQWVSGWRLNADSVLWGGHKVFMVKPEEPFQPVKEATQL [P134T] | 0.059 |  | 0.0553 | 0.0413 |  | 0.075 |  |  | 0.0627 | 0.0686 | 0.0541 |  |  | 0.0585 | 0.0455 |  |  |
| MGESLFKGPRDYNPISSSICHLTNESDGHTTSLYGIGFGPFIITNKHLFRRNNGTLVVQSLHGVFKVKDTTTLQQHLVDGRDFIIIRMPKDFPPFPQKLKFREPQREERICLVTTNFQTKSMSSMVSDTSCTFPSGDGIFWKHWIQTKDGQCGSPLVSTRDGFIVGIHSASNFTNTNNYFTSVPKNFMELLTNQEAQQWVSGWRLNADSVLWGGHKVFMVKPEEPFQPVKEATQL [M83F] | 0.0589 | 0.0777 |  | 0.0621 |  | 0.0512 |  |  | 0.0551 |  |  |  | 0.0634 |  | 0.0552 | 0.0848 | 0.0696 |
| MGESLFKGPRDYNPISSSICHLTNESDGHTTSLYGIGFGPFIITNKHLFRRNNGTLVVQSLHGVFKVKDTTTLQQHLVDGRDMIIIRMPKDFPPFPQKLKFREPQREERICLVTTNFQTKSMSSMVSDTSCTFPSGDGIFWKHWIQTKDGQCGSPLVSTFDGFIVGIHSASNFTNTNNYFTSVPKNFMELLTNQEAQQWVSGWRLNADSVLWGGHKVFMVKPEEPFQPVKEATQL [R160F] | 0.0637 | 0.0905 | 0.072 | 0.0732 |  | 0.0752 | 0.0845 | 0.0897 | 0.0948 | 0.0726 | 0.0849 | 0.0823 | 0.0466 | 0.062 | 0.0543 | 0.0716 | 0.12 |
| MGESLFKGPRDYNPISSSICHLTNESDGHTTSLYGIGFGPFIITNKHLFRRNNGTLVVQSLHGVFKVKDTTTLQQHLVDGRDMIIIRMPKDFPPFPQKLKFREPQREERICLVTTNFQTKSMSSMVSDTSCTFPSGDGIFWKHWIQTKDGQCGSPLVSTQDGFIVGIHSASNFTNTNNYFTSVPKNFMELLTNQEAQQWVSGWRLNADSVLWGGHKVFMVKPEEPFQPVKEATQL [R160Q] | 0.0623 | 0.0594 |  | 0.0655 |  | 0.0629 | 0.0847 |  | 0.0791 | 0.0923 | 0.0899 | 0.0728 |  | 0.069 | 0.052 |  | 0.0894 |
| MGESLFKGPRDYNPISSSICHLTNESDGHTTSLYGIGFGPFIITNKHLFRRNNGTLVVQSLHGVFKVKDTTTLQQHLVDGRDMIIIRMPKDFPPFPQKLKFREPQREERICLVTTNFQTKSMSSMVSDTSCTFPSGDGIFWKHWIQTKDGQCGSPLVSCRDGFIVGIHSASNFTNTNNYFTSVPKNFMELLTNQEAQQWVSGWRLNADSVLWGGHKVFMVKPEEPFQPVKEATQL [T159C] | 0.0623 | 0.0838 |  | 0.0674 |  | 0.0553 | 0.0789 |  |  |  |  |  |  |  |  |  |  |
| MGESLFKGPRDYNPISSSICHLTNESDGHTTSLYGIGFGPFIITNKHLFRRNNGTLVVQSLHGVFKVKDTTTLQQHLVDGRDMIIIRMPKDFPPFPQKLKFREPQREERICLVTTNFQTKSMSSMVSDTSCTFPSGDGIFWKHWIQTKDGQCGSPLGSTRDGFIVGIHSASNFTNTNNYFTSVPKNFMELLTNQEAQQWVSGWRLNADSVLWGGHKVFMVKPEEPFQPVKEATQL [V157G] | 0.0564 | 0.0584 | 0.0456 | 0.0623 |  | 0.0487 | 0.0515 | 0.0444 | 0.0599 | 0.0514 | 0.0493 |  |  |  |  |  | 0.0577 |
